Experimental data from patent US20260166169A1, “ANTIBODY-DRUG CONJUGATE, PREPARATION METHOD AND USE THEREOF” (priority 2023, published 2026).

Experiments:
[1] = Toxicological experiments of repeated administration to cynomolgus monkeys; format: in vivo; conditions: cynomolgus monkey
Experimental: Experimental Example 3: Toxicological Experiments of 02-1-LP1 and 02-1-Vc-MMAE on Cynomolgus Monkeys
Experiment of repeated administration of 02-1-LP1 (prepared in Example 5) to cynomolgus monkeys: 6 cynomolgus monkeys (purchased from Guangxi Frontier Biotechnology Co., Ltd.) were randomly divided into 3 groups, and there were one male and one female in each group. Vehicle, 10 mg/kg of 02-1-LP1, and 30 mg/kg of 02-1-LP1 were infused intravenously on the 1st day, the 22nd day and the 43rd day, respectively. […] On the 50th day, the animals were euthanized and sampled for pathological analysis. […] HNSTD (maximum dose without severe toxicity) was 30 mg/kg.
Experiment of repeated administration of 02-1-vc-MMAE (prepared in Comparative Example 1) to cynomolgus monkeys: 6 cynomolgus monkeys were randomly divided into 3 groups, and there were one male and one female in each group. 3 mg/kg 02-1-vc-MMAE, 6 mg/kg 02-1-vc-MMAE, and 10 mg/kg 02-1-vc-MMAE were infused intravenously on the 1st day, the 22nd day, respectively. […] On the 43rd day, the animals were euthanized and sampled for pathological analysis. […] HNSTD (maximum dose without severe toxicity) was 6 mg/kg.

[2] = test system: Huh-7 human liver cancer CDX model; assay: In vivo inhibitory effect on Huh-7 CDX model and body weight change; set-up: species or system Balb/c nude mice; conditions: 10 mpk intravenous
Excerpt: Experimental Example 8: In Vivo Inhibitory Effect on Huh-7 Human Liver Cancer CDX Model and Effect Thereof on Body Weight Change of Mice
6-week-old Balb/c nude mice were purchased from Shanghai BK/KY Biotechnology Co., Ltd. Each mouse was subcutaneously inoculated with five million Huh-7 cells (purchased from Shanghai BioGene Biotech Co., Ltd,) to obtain CDX model. On the 9th day after inoculation (an average tumor volume was about 230 mm^3), Human IgG-LP1 prepared in Comparative Example 5, and 02-1-LP1 prepared in Example 5 were intravenously injected, respectively. The administration doses were all 10 mpk, once a week for two times (QW×2). After administration, a tumor volume was measured twice a week with a vernier caliper, and the tumor volume was calculated according to the following formula: TV=(length×width)^2/2.

[3] = test system: LD1-0015-200617 human esophagus squamous cell carcinoma PDX model; assay: In vivo inhibitory effect on LD1-0015-200617 PDX model and body weight change; set-up: species or system Nu/Nu mice
Excerpt: Experimental Example 9: In Vivo Inhibitory Effect on LD1-0015-200617 Human Esophagus Squamous Cell Carcinoma PDX Model and Effect Thereof on Body Weight Change of Mice
LD1-0015-200617 (LideBiotech CO., LTD) is a human esophagus squamous cell carcinoma patient derived xenograft model which expresses human MUC18 (H-Score=75). 6-8 weeks Nu/Nu mice were purchased from Beijing Vital River Laboratory Animal Technology Co., Ltd. Tumors of LD1-0015-200617 were sliced into about 3 mm×3 mm×3 mm fragments and implanted subcutaneously into the flank of mice. On day 39 (mean tumor size ˜171 mm^3) following implanting, Human IgG-LP1 prepared in Comparative Example 5, and 02-1-LP1 prepared in Example 5 were intravenously injected, respectively. The administration doses were all 10 mpk, once a week for three times (QW×3). After administration, a tumor volume was measured twice a week with a vernier caliper, and the tumor volume was calculated according to the following formula: TV=(length×width)^2/2.

[4] = Measurement of aggregates in antibody-drug conjugate by size exclusion chromatography (operation H); format: physicochemical; conditions: detection 280 nm
[5] = test system: LD1-2009-362263 human triple negative breast cancer PDX model; assay: In vivo inhibitory effect on LD1-2009-362263 PDX model and body weight change; set-up: species or system Nu/Nu mice
Excerpt: Experimental Example 12: In Vivo Inhibitory Effect on LD1-2009-362263 Human Triple Negative Breast Cancer PDX Model and Effect Thereof on Body Weight Change of Mice
(§1) LD1-2009-362263 (LideBiotech CO., LTD) is a human triple negative breast cancer patient derived xenograft model which expresses human MUC18 (H-Score=240). 6-8 weeks Nu/Nu mice were purchased from Beijing Vital River Laboratory Animal Technology Co., Ltd. Tumors of LD1-2009-362263 were sliced into about 3 mm×3 mm×3 mm fragments and implanted subcutaneously into the flank of mice. On day 49 (mean tumor size ˜152 mm^3) following implanting, 02-1-LP1 prepared in Example 5 was intravenously injected. The administration dose was 10 mpk, once a week for two times (QW×2). After administration, a tumor volume was measured twice a week with a vernier caliper, and the tumor volume was calculated according to the following formula: TV=(length×width)^2/2.

[6] = test system: LD1-0016-390730 human esophagus adenocarcinoma PDX model; assay: In vivo inhibitory effect on LD1-0016-390730 PDX model and body weight change; set-up: species or system Nu/Nu mice
Excerpt: Experimental Example 10: In Vivo Inhibitory Effect on LD1-0016-390730 Human Esophagus Adenocarcinoma PDX Model and Effect Thereof on Body Weight Change of Mice
as §1, with “LD1-0016-390730” for “LD1-2009-362263”, “esophagus adenocarcinoma” for “triple negative breast cancer”, “(H-Score=115).” for “(H-Score=240).”, “45” for “49”, “˜191” for “˜152”

[7] = repeated intravenous administration

B1: 02-1-LP1 (conjugate)
heavy: QVQLVQSGAEVKKPGASVKVSCKASGYTFTDYNMDWVRQSPGQSLEWMGDINPNNGATLYNQNFRGRVTITRDTSASTAYMELSSLRSEDTAVYYCTRSGYDDYYALDYWGQGTTVTVSS[human IgG1 constant region left out]
light: DTQLTQSPSFLSASVGDRVTITCSASSSVGYMHWYQQKPGKAPKLLIYSTSNLASGVPSRFSGSGSGTEYTLTISSLQPEDFATYYCHQWSNYPSTFGQGTKLEIKRTVAAPSVFIFPPSDEQLKSGTASVVCLLNNFYPREAKVQWKVDNALQSGNSQESVTEQDSKDSTYSLSSTLTLSKADYEKHKVYACEVTHQGLSSPVTKSFNRGEC
- death of the animals ([1]; all doses (10 and 30 mg/kg), days 1, 22, 43): did not cause death of the animals
- safety (comparison of the two ADCs) ([1]; repeated administration): significantly better than that of 02-1-vc-MMAE
- HNSTD (maximum dose without severe toxicity) [1, 7]: 30 mg/kg
- Lethal dose [1, 7]: >30 mg/kg
- Target organs related to the test substance [1, 7]: reticulocytes, digestive tract, kidney, and spleen
- Blood biochemistry ([1]; ≤30 mg/kg): ≤30 mg/kg: Normal
- tumor growth (tumor volume) ([2]; QW×2, FIG. 25A): can effectively inhibit tumor growth
- body weight of mice ([2]; QW×2, FIG. 25B): little effects on the body weight of mice
- body weight of mice ([3]; 10 mpk intravenous, QW×3, FIG. 26B): little effects on the body weight of mice
- tumor growth (tumor volume) ([3]; MUC18 H-Score=75, 10 mpk intravenous, QW×3, FIG. 26A): can effectively inhibit tumor growth
- content of the aggregates [4]: 1.18%
- body weight of mice ([5]; 10 mpk intravenous, QW×2, FIG. 29B): little effects on the body weight of mice
- tumor growth (tumor volume) ([5]; MUC18 H-Score=240, 10 mpk intravenous, QW×2, FIG. 29A): can effectively inhibit tumor growth
- body weight of mice ([6]; 10 mpk intravenous, QW×2, FIG. 27B): little effects on the body weight of mice
- tumor growth (tumor volume) ([6]; MUC18 H-Score=115, 10 mpk intravenous, QW×2, FIG. 27A): can effectively inhibit tumor growth
